Out of some 310,000 compounds screened, about 14,000 (4.5%) showed an effect of 50% or more. Effects have a minus sign here. The list shows a part of the results.
Target: human ether-à-go-go-related gene (hERG) potassium channel (human, UniProt Q12809)
Experiment: primary screen, population patch clamp on CHO cells stably expressing hERG
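Note: peak tail current of the secondary pulse compared with the same well before compound.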

Sequence of human ether-à-go-go-related gene (hERG) potassium channel (Q12809 whole entry, looked up): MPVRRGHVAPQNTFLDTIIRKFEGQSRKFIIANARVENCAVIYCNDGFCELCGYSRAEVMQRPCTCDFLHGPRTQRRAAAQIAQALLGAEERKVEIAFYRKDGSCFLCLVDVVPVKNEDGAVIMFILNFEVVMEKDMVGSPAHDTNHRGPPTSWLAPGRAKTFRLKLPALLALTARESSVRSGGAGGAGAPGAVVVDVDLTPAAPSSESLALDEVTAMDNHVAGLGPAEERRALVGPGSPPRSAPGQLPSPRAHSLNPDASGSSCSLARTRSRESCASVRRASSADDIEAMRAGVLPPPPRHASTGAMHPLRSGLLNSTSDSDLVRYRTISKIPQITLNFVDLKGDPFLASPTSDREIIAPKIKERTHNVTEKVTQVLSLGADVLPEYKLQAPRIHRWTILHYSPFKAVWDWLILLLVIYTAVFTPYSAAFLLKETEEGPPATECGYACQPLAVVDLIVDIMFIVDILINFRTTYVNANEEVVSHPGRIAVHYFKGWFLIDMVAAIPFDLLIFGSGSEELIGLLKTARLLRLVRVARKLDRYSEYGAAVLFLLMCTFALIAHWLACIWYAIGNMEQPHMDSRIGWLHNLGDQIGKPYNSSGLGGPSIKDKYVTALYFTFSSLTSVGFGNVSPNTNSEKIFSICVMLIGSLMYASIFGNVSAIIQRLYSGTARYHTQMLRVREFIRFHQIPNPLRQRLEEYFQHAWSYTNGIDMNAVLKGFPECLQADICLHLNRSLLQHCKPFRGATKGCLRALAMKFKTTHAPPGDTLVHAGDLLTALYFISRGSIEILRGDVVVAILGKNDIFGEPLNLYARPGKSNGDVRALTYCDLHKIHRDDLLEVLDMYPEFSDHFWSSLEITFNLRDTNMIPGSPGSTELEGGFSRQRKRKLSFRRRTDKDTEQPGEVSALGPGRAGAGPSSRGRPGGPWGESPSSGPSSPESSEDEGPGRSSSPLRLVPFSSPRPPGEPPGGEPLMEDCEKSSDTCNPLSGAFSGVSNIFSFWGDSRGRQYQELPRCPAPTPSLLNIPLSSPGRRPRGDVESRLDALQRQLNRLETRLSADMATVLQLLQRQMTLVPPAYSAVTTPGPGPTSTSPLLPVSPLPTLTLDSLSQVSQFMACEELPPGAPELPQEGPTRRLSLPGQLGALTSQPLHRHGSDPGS

Compared with `O=C(NCCCN1CCCC1=O)c1cccc(N2CCCC2=O)c1`, `COCCNC(=O)CN1N=C(c2ccc(C)cc2)CCC1=O` is lower in “hERG current change (%, negative = inhibition) at 10uM” value: 4.33% for the first, -47.9% for the second.

Going from `CCCCCC1(C)NC(=S)N(c2ccccc2)N1` (stereo not shown) to `CCCCS(=O)c1c(O)c2ccccc2[nH]c1=O` (stereo not shown), the “hERG current change (%, negative = inhibition) at 10uM” value rises from 7.03% to 15.3%.

First: N#Cc1ccc(CSc2ccccn2)c(Cl)c1
Second: O=S(=O)(NCCc1ccccc1)c1ccc(Cl)nc1
The “hERG current change (%, negative = inhibition) at 10uM” value of the first is lower: 10.6% for the first, 10.9% for the second.

Compared with `Cc1ccc(S(=O)(=O)NCCC(=O)Nc2cc(F)ccc2C)cc1C`, `O=C(CCNS(=O)(=O)c1ccc(Br)cc1)NCCCSc1ccccc1` is lower in “hERG current change (%, negative = inhibition) at 10uM” value: 2.51% for the first, -4.84% for the second.

Compared with `COc1ccc(CC(=O)N2CCN=C2SC)cc1`, `COc1ccc(C2=NCC(CSc3nccc(=O)[nH]3)S2)cc1` (stereo not shown) is lower in “hERG current change (%, negative = inhibition) at 10uM” value: 13% for the first, 1.52% for the second.

First: CCCCn1c(N)c(NCc2ccccc2OC)c(=O)[nH]c1=O
Second: COCCCN1C(=O)c2ccc(C(=O)OCC(=O)NCCc3ccccc3)cc2C1=O
The “hERG current change (%, negative = inhibition) at 10uM” value of the first is higher: 12.2% for the first, 5.99% for the second.

Going from `Br.Cn1c(=N)n(CC(=O)c2ccccc2)c2ccccc21` to `O=c1cc(NCCc2ccccc2)c2ccccc2o1`, the “hERG current change (%, negative = inhibition) at 10uM” value rises from -12.4% to 34.2%.

Compared with `Cc1cccc(N(Cc2ccccc2)C(=O)c2ccccc2S(C)(=O)=O)c1`, `O=C(CSc1nncn1-c1cccnc1)N(c1ccccc1)c1ccccc1` is lower in “hERG current change (%, negative = inhibition) at 10uM” value: 6.57% for the first, 4.28% for the second.

First: c1coc(-c2nc3nc4ccccc4n3nc2-c2ccco2)c1
Second: Cc1onc(-c2ccccc2)c1NC(=O)Nc1c(-c2ccccc2)noc1C
The “hERG current change (%, negative = inhibition) at 10uM” value of the first is higher: 12.8% for the first, 8.89% for the second.

Going from `Cc1ccc(NC(=O)CS(=O)CC(=O)N2CCN(C3CCCC3)CC2)cc1` (stereo not shown) to `CCN1CCN(C(=S)Nc2ccc(C(C)=O)cc2)CC1`, the “hERG current change (%, negative = inhibition) at 10uM” value rises from 15.8% to 30.5%.

Compared with `CC1CCN(S(=O)(=O)c2cn(CC(=O)N3CC(C)CC(C)C3)c(=O)c3ccccc23)CC1` (stereo not shown), `CC1CCC2(CC1)NC(=O)N(CC(=O)c1cn(CCC#N)c3ccccc13)C2=O` (stereo not shown) is lower in “hERG current change (%, negative = inhibition) at 10uM” value: 6.32% for the first, -13.8% for the second.

First: Cc1cc(C)[n+]2n1C(=O)C(c1ccccc1)=C2[O-]
Second: Cc1ccc(NC(=O)CSc2nnc(Cc3ccccc3)c(=O)[nH]2)c(C)c1
The “hERG current change (%, negative = inhibition) at 10uM” value of the first is higher: 6.67% for the first, -51.4% for the second.

Compared with `CC(C)(C)NC(=O)c1cccc(NC(=O)c2cccc(O)c2)c1`, `C/C(=C\C(=O)c1ccc(C)cc1)Nc1cccc(O)c1` is lower in “hERG current change (%, negative = inhibition) at 10uM” value: 5.93% for the first, 3.17% for the second.

Going from `Cc1ccn(CCC(=O)N2CCc3ccccc32)n1` to `Cc1cc(C)n(CCC(=O)N2CCc3ccccc32)n1`, the “hERG current change (%, negative = inhibition) at 10uM” value falls from 15.4% to 2.96%.

Going from `Fc1ccccc1CNC(=S)NCc1ccc(Cl)cc1` to `COc1cccc(CNCCO)c1OCc1ccc(Cl)cc1.Cl`, the “hERG current change (%, negative = inhibition) at 10uM” value falls from 6% to -18%.

Compared with `Cc1ccc(NC(=O)c2ccc3c(c2)nnn3C)cc1`, `Cc1ccc(NC(=O)c2ccc3snnc3c2)cc1` is higher in “hERG current change (%, negative = inhibition) at 10uM” value: 12% for the first, 13.4% for the second.

Compared with `COc1ccc(-c2cc(-c3ccccc3O)[nH]n2)cc1`, `O=C(O)c1cn(-c2ccccc2)nc1-c1ccc(F)cc1` is higher in “hERG current change (%, negative = inhibition) at 10uM” value: 10.3% for the first, 23.6% for the second.

Going from `COc1ccc(/C=C/C(=O)O)cc1S(=O)(=O)N1CCc2ccccc2C1` to `Cc1ccccc1NC(=O)C1CCN(S(=O)(=O)c2cccs2)CC1`, the “hERG current change (%, negative = inhibition) at 10uM” value falls from 9.41% to -12.5%.

First: Cc1ccc(SCC(=O)N/N=C/c2ccco2)cc1
Second: CCn1c(=O)cc(SCC(=O)Nc2ccc3c(c2)OCO3)c2ccccc21
The “hERG current change (%, negative = inhibition) at 10uM” value of the first is higher: 0.766% for the first, -17.5% for the second.

Going from `Cn1nnc(NC(=S)NC(=O)c2cccc3ccccc23)n1` to `COC(=O)Cn1ncc2c3ccccc3n(C)c2c1=O`, the “hERG current change (%, negative = inhibition) at 10uM” value falls from 27.8% to 4.05%.

Going from `CCOC(=O)C1CCCN(c2c(NCCc3ccc(S(N)(=O)=O)cc3)c(=O)c2=O)C1` (stereo not shown) to `CCCNc1c(NS(=O)(=O)c2ccc(NC(=O)CC)cc2)c(=O)oc2ccccc12`, the “hERG current change (%, negative = inhibition) at 10uM” value falls from -1.91% to -38.2%.

Going from `CC(O)(CS(=O)(=O)Cc1ccccc1)C(=O)Nc1ccc(C(F)(F)F)cc1` (stereo not shown) to `Nc1nc(SCC(=O)Nc2ccccc2C(F)(F)F)[nH]c(=O)c1-c1ccccc1`, the “hERG current change (%, negative = inhibition) at 10uM” value rises from -0.8% to 7.7%.

First: O=S1(=O)NC(C2CC2c2ccccc2)CCO1 (stereo not shown)
Second: O=C(c1ccccc1)C1CCc2occc2C1=O (stereo not shown)
The “hERG current change (%, negative = inhibition) at 10uM” value of the first is higher: -0.374% for the first, -12.2% for the second.

Going from `Cc1cc(/N=C/N(C)C)on1` to `Cc1cc(C)n(-c2ccc(C(=O)N3CC(C)OC(C)C3)cc2)n1` (stereo not shown), the “hERG current change (%, negative = inhibition) at 10uM” value falls from 29% to 17.5%.

Going from `Cc1ccc(S(=O)(=O)N(C)CC(=O)Nc2nnc(CC(C)C)s2)cc1` to `Cc1noc(C)c1CSCC(=O)Nc1nc2ccc(S(C)(=O)=O)cc2s1`, the “hERG current change (%, negative = inhibition) at 10uM” value rises from -4.11% to 14.6%.

First: Cn1c2c(c(=O)[nH]c1=O)C(c1ccc(O)cc1)C1=C(N2)c2ccccc2C1=O (stereo not shown)
Second: Cn1c(O)c(C(=O)c2ccccc2Cl)c(=O)n(C)c1=O
The “hERG current change (%, negative = inhibition) at 10uM” value of the first is higher: -5.73% for the first, -6.25% for the second.

Compared with `CC(=O)N1CCc2c(sc(NC(=O)CCS(=O)(=O)c3ccccc3)c2C(N)=O)C1`, `CC(=O)NC(CC(C)C)C(=O)NC(=O)NCc1ccccc1` (stereo not shown) is lower in “hERG current change (%, negative = inhibition) at 10uM” value: 5.3% for the first, -1.58% for the second.

Going from `COc1ccc(-c2csc(N(CCCN(C)C)C(=O)c3ccc(C(C)(C)C)cc3)n2)cc1.Cl` to `COc1ccc(CNc2nc(-c3ccccc3)nn2C(=O)c2ccc([N+](=O)[O-])cc2)cc1`, the “hERG current change (%, negative = inhibition) at 10uM” value falls from 18% to 2.93%.

First: CCCC(C(=O)NC1CCCC1)N(C(=O)c1snc(C(N)=O)c1N)c1ccc(OCC)cc1 (stereo not shown)
Second: O=C(NC1CCCCC1)c1ccc(Cn2cc(Cl)cn2)cc1
The “hERG current change (%, negative = inhibition) at 10uM” value of the first is lower: -25.6% for the first, -21.2% for the second.

First: N#Cc1ccc(N/N=C/c2cn(-c3ccccc3)nc2-c2ccccc2)c([N+](=O)[O-])c1
Second: Cc1nn(-c2ccccc2)c(C)c1/C=N\NS(=O)(=O)c1ccc(Cl)cc1
The “hERG current change (%, negative = inhibition) at 10uM” value of the first is higher: -3.35% for the first, -17.7% for the second.

Going from `COc1ccc2cc(CN(CC3COCCO3)S(=O)(=O)c3ccc(Cl)cc3)c(=O)[nH]c2c1` (stereo not shown) to `COc1ccc(Nc2nc(NCc3ccco3)nc(N3CCOCC3)n2)cc1`, the “hERG current change (%, negative = inhibition) at 10uM” value rises from 9.87% to 16.1%.

Going from `CCc1ccc(OCc2nnc(SCC(=O)Nc3cccc(C(=O)N4CCOCC4)c3)o2)cc1` to `O=C(Cc1c(F)cccc1Cl)Nc1ccccc1C(=O)N1CCOCC1`, the “hERG current change (%, negative = inhibition) at 10uM” value rises from -61.4% to 3.32%.

First: Cc1cc(C)c2sc(NC(=O)c3ccc([N+](=O)[O-])o3)nc2c1
Second: CCCCOc1ccc(/C=C/C(=O)Nc2ccc([N+](=O)[O-])cc2C)cc1
The “hERG current change (%, negative = inhibition) at 10uM” value of the first is lower: -19.6% for the first, 2.18% for the second.

Compared with `CCOC(=O)NC(=O)c1cn(N(C)c2ncc(C(F)(F)F)cc2Cl)c(=O)[nH]c1=O`, `CCN(CC(=O)Nc1c(F)cccc1F)C(=O)CCN1C(=O)C2CCCCC2C1=O` (stereo not shown) is higher in “hERG current change (%, negative = inhibition) at 10uM” value: -5.85% for the first, 16.7% for the second.

Going from `O=C(NNC(=S)NC1CC2C=CC1C2)c1ccncc1` (stereo not shown) to `CC(=O)c1cccc(NC(=S)NC2CCCCCCC2)c1`, the “hERG current change (%, negative = inhibition) at 10uM” value falls from 16.4% to 9.26%.

First: O=C(N/N=C/c1ccccc1O)C(=O)N1CCCCCC1
Second: Clc1ccc(OCC#CCN2CCCC2)cc1.O=C(O)C(=O)O
The “hERG current change (%, negative = inhibition) at 10uM” value of the first is higher: 7.3% for the first, -27.4% for the second.

Going from `Nc1ncc(Br)cc1S(=O)(=O)NCCC(=O)N1CCN(c2ccccn2)CC1` to `O=C(NC1CCCCC1)N1CCN(c2nc(-c3ccccc3)cs2)CC1`, the “hERG current change (%, negative = inhibition) at 10uM” value rises from -55.4% to 9.02%.

Going from `Cc1cc2oc(=O)cc(CN3CCCCC3C)c2c(C)c1Cl` (stereo not shown) to `Cc1ccc(CNC(=O)C2CCN(c3nc(C)cc(C)n3)CC2)cc1`, the “hERG current change (%, negative = inhibition) at 10uM” value falls from 11% to -5.54%.

Going from `CSc1ccc(C(=O)C2CCCN(CCCn3cccn3)C2)cc1` (stereo not shown) to `O=C(NCc1ccc2c(c1)OCO2)C1CCN(c2ncccn2)CC1`, the “hERG current change (%, negative = inhibition) at 10uM” value rises from -76.8% to 0.299%.

Compared with `CC(=O)N/C(=C\c1ccc2c(c1)OCO2)C(=O)NC(C(=O)O)c1ccccc1` (stereo not shown), `O=C(Nc1cccc(C(=O)O)c1)/C(=C/c1ccc2c(c1)OCO2)NC(=O)c1cccc(Br)c1` is lower in “hERG current change (%, negative = inhibition) at 10uM” value: 18.8% for the first, 7.35% for the second.

Compared with `CSCCC(NC(N)=O)C(=O)NCc1ccc(Cl)cc1` (stereo not shown), `CN(C)CCNC(=O)C(=O)NCC1OCCN1S(=O)(=O)c1cc(F)ccc1F` (stereo not shown) is higher in “hERG current change (%, negative = inhibition) at 10uM” value: 5.44% for the first, 9.66% for the second.

Going from `C[C@H](NC(=O)c1ccc2c(c1)OCO2)c1nnc2ccccn12` to `CC(=O)c1cc2c(cc1NC(=O)C1CCC1)OCO2`, the “hERG current change (%, negative = inhibition) at 10uM” value rises from 15.6% to 17.6%.

Compared with `Cc1cccc(C)c1OCc1cc(C(=O)N2CCN(c3ccc(F)cc3)CC2)no1`, `Cn1c(C(=O)N2CCC(C(=O)N3CCOCC3)CC2)cc2sccc21` is higher in “hERG current change (%, negative = inhibition) at 10uM” value: 5.65% for the first, 7.59% for the second.

Compared with `CCCNC(=O)c1n[nH]c2c1CC(C(C)(C)CC)CC2` (stereo not shown), `CCc1cc2c(NCC(=O)O)ncnc2s1` is higher in “hERG current change (%, negative = inhibition) at 10uM” value: 1.27% for the first, 7.76% for the second.

Going from `O=C(O)c1cnc2ccccc2n1` to `O=C(O)c1ccc(Nc2ccc3nonc3c2[N+](=O)[O-])cc1`, the “hERG current change (%, negative = inhibition) at 10uM” value falls from 19.8% to 16.7%.

In the case of `Cc1nc(-c2ccc(S(=O)(=O)Nc3cc(S(=O)(=O)N(C)C)ccc3C)s2)cs1`, the “hERG current change (%, negative = inhibition) at 10uM” value is reported as -3.19%.

Source: PMC4336329 (PLoS ONE, 2015)
